Laboratory results from the supplement of paper PMC3334620.
In all, about 33,000 sequences were measured (“E-score (-0.5 to 0.5)”: median about -0.041, highest 2% from about 0.37 on). Some of the results follow.

These sequences were tested against T1, Ecm22 (UniProt Q05958) (assay: PBM E-score (8-mer binding enrichment) (E-score (-0.5 to 0.5)); higher = stronger / more preferred TF binding; most listed sequences are background and not binding sites). Settings: protein concentration: 200 nM; construct: GST-full length.
T1 sequence: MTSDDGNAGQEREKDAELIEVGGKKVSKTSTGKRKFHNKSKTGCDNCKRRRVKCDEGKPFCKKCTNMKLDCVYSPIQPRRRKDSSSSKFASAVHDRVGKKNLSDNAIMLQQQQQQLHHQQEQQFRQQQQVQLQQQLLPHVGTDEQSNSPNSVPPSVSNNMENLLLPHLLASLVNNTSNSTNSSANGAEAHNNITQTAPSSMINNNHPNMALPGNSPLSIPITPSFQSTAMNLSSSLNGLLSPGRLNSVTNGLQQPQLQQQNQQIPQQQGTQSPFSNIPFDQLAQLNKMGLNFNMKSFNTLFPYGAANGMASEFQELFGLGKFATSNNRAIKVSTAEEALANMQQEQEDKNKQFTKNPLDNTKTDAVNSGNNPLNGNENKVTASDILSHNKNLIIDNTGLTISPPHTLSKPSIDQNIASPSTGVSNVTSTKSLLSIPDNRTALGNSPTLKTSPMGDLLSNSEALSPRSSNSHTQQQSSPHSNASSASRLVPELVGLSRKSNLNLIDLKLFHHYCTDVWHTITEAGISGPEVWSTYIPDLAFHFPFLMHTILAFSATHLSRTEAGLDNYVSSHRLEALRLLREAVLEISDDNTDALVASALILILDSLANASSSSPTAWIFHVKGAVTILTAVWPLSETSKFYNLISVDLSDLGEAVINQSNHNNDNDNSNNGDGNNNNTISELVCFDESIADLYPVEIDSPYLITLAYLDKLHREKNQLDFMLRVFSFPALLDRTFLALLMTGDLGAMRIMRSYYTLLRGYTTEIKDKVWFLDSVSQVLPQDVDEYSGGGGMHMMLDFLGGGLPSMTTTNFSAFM
How it was run: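 Yeast transcription factors, full-length or as DNA-binding domains, were expressed with a GST tag using PURExpress in vitro transcription/translation. At about 100-200 nM they were applied to universal all-10-mer Agilent arrays, double-stranded by primer extension on fresh or once-stripped slides. Fluorescent anti-GST detected bound protein, and masliner normalised the scans. E-scores for ungapped eight-base words, pooled with reverse complements, came from the Universal PBM Analysis Suite.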

Sequence	PBM E-score
CCTTCTCA	-0.057
CTTTGTGA	-0.18
CGGAAGTC	0.12
AGCTTTGA	-0.14
AAAGAGTA	-0.21
ACCCGGCC	-0.142
CCTGAAAG	-0.132
AGGCAACG	0.166
GATTGGTA	-0.0236
GTATATAC	0.334
AAACTCCG	-0.112
ACCTTTAA	0.113
TCGACGCA	-0.00701
CATTAAGC	0.0107
CTGTCATC	-0.195
GTCATGAA	-0.111
AATGTGAT	-0.00834
CTCGTCCA	-0.0634
AAGATCGA	0.0419
AGGGTGTA	-0.0788
ACGGTCGC	0.149
AGCGCACC	0.00342
GATTCACC	-0.0811
GTCGACCA	-0.054
AGGCTACT	-0.0431

Sequence	PBM E-score
AAATGAGG	-0.244
GCCTCGCC	0.101
ATGTCGAC	0.124
AATAGCGC	0.00167
AAAGGACC	-0.117
CTCTGAGC	-0.0896
CTGGCCCC	-0.0756
CTACTGGC	-0.206
GGTCCACA	-0.0429
AACACTCG	0.258
ATGACCAA	-0.00075
CTCCAGCA	0.0964
CCGAACAC	-0.0402
AAGTGTTC	0.0293
CGGGAACC	0.0199
AAGTATGA	0.0516
GTAGTCAA	0.0164
AAGAGAAT	-0.154
ATTGCTAC	0.156
TCGTAAGA	0.407
GTGTAACA	-0.108
GCCCCTAC	-0.0826
AGTTAAAA	0.00218
GGATAGCC	0.145
ACAAGGTA	0.0276

Sequence	PBM E-score
CCCACTCA	-0.0867
CCTAGTTA	-0.135
CATCGTAG	0.261
ACGCTTAC	0.0738
GGACCAAA	0.0334
GGCCATAC	0.158
ACGAGTCC	0.341
ATTGTAGC	-0.054
CATATCAC	0.0678
AGGTATCA	-0.259
ATCTATCC	-0.0194
ACGTTACG	0.319
TATCCCAA	-0.11
AGACTTAG	-0.316
GTAACCCA	0.121
ACGACACG	0.327
ACTAAGAA	-0.0756
AGGAACAA	-0.0222
TACATTGA	-0.0816
AGTTCGGC	-0.00793
TATGAGGA	-0.127
CTTTGGAC	-0.0902
CAAGCCTA	-0.126
ATTCTCGG	0.245
GCACAAGA	0.00568

Sequence	PBM E-score
TCCCGAGA	0.125
CAAGGTCC	-0.0239
AGCTTTCG	0.0661
ACCAACGA	0.0849
GTCACCAC	-0.12
GCGGGCTA	-0.145
ACGAGCAT	0.365
CCGTACTA	0.341
GATTACTA	-0.0288
AAACCCCG	-0.0114
CACTAGCG	-0.162
CCAGGGTA	-0.0774
TGACTTAA	-0.0427
ACACAAGC	-0.041
ACACTACT	0.0669
CGAATCCC	0.15
AAATTCAA	0.0425
CATCCTAA	0.00158
CATGACAA	-0.116
GAGAATAC	0.206
AAGCCGCG	0.099
CCCCGTCC	-0.141
CCGCATGA	-0.0688
CCTCTAGC	-0.314
ACGCCATA	0.0957

Sequence	PBM E-score
CAGCCAGG	-0.082
ATACCCAT	0.0351
CTTTGTAC	0.147
ACTGCCAG	-0.101
GGTCTTAA	-0.123
AACACGTG	0.0179
CTAGGCCA	-0.161
TCTTGAAA	0.0462
ACATTTGC	0.146
ACAGAATG	0.0451
AAAACGCA	0.066
ACAACCCG	0.141
GGCCGCTA	-0.0232
ATAGTATC	0.127
AATGGACC	-0.00437
ACCTGATG	-0.0861
AGCAAGTA	-0.177
CTGCTATC	0.0811
GGTCTTGA	-0.0235
CTGAGGAA	-0.0644
AGGGTTAA	-0.0692
AATTCGGG	0.00085
AAAGCCAG	-0.0478
CGACGAAA	0.249
AATTCCAT	-0.174

Sequence	PBM E-score
CGGTCTGC	0.0314
ATTGTCCC	-0.291
GATAACCC	-0.0897
GACTTGGA	-0.133
ACGGTGGC	0.081
AAAGAAGA	-0.133
CGTTGGAC	-0.174
CCGGTATC	-0.168
AACGCAGG	0.0371
ACCCGGTG	-0.132
CAAATGGC	-0.129
ACGATGAA	0.322
ACGACACC	0.367
CATCTCAG	-0.102
CATGCAAA	0.0661
CAGCTGCG	0.0631
ACCGTAGA	0.0719
GTACTTCA	0.19
CTATCGAA	0.0456
AACCACCG	0.0442
ACGCGGAA	0.0882
GACATTTA	-0.0763
CATCATCA	-0.0678
AGCACTCA	-0.0118
CGTACACG	0.382

Sequence	PBM E-score
AAGGGCGG	-0.297
GGCCAAAA	-0.154
AGATGCGG	-0.145
CATAACAC	0.0539
CACCATAG	-0.302
CCAACCTA	-0.352
ACTGGGCT	-0.199
GTTAAGGA	-0.0129
AGTAATTG	0.085
CTTGCCTA	-0.158
AGACTGAC	-0.113
ATGTATAG	0.087
AGTTCGTC	0.207
CTGCGTCA	-0.109
CACCGGCA	-0.00934
CGCGTCCC	-0.162
ATTGCCTA	-0.312
AGGCTTCG	0.0803
ACGCTCCG	0.0297
GATCTTAA	0.163
GCACGCGC	-0.106
ACGAGATC	0.433
AGCGAGCG	0.345
GATATTAA	0.0321
GATCTTAC	0.0502

Sequence	PBM E-score
GACACGTC	-0.106
CTTCAAGA	-0.29
AACTTTAG	-0.00438
AATACACG	0.0195
CGAGGCGA	0.139
AGCCCTCC	-0.101
CGACATGC	0.0752
AGTTACGA	0.393
AGGCGGAC	-0.0342
GCTGAAGC	-0.13
CTCTCTTC	-0.25
AAGCTCAA	-0.136
GAGCATTA	-0.0735
AGGAACGC	0.208
CTTTCGGA	0.0148
CTCTCTAA	-0.232
CTGAGCCC	-0.0136
ATCTCCTA	-0.37
CAATAGAA	-0.178
AGGTCTCC	-0.141
ACTACACC	-0.124
GCCTGAGC	-0.267
ACGTGCAC	0.101
ACTACGGG	0.00055
GTGGCAAA	-0.187

Sequence	PBM E-score
ATGGGGGG	-0.352
ACAACTGT	-0.148
CTAGCATC	-0.0349
AAGAGCTC	-0.194
CGGGACGC	-0.0663
ACCCGATC	0.0785
CACCTAGG	-0.0337
AAGTGCAG	-0.161
ACTGCGAG	0.102
AGTGCCTA	-0.205
AATTTGGG	-0.239
ATCCCAAT	-0.271
AACTCGAC	0.09
AGAGCGCA	-0.195
AGTCAATC	0.0883
AAGAGGGT	-0.161
CACGATCG	0.071
AATGGGAC	-0.345
CAGGTGCA	-0.264
GTGAGCAC	-0.219
CAACATAA	0.00862
CAAATCGG	0.0223
CTTTGTTA	-0.0531
CACGCTCG	0.266
AGCGCCCC	-0.153

Sequence	PBM E-score
ACCCGTCA	-0.161
AGTGCAAA	-0.0139
CGGGACCC	-0.0763
ATTATGAC	0.0738
CTTGAGGA	-0.227
CGATATAG	0.192
ACGTCACA	-0.0123
CACGTCTG	-0.172
CAGCTAGG	-0.373
CGGTGAAC	0.087
GGGCGACC	-0.275
GCGGAACA	-0.109
AAATACAC	0.0558
CAACTGCA	-0.0388
CCTCAGGC	-0.144
CGATAAAA	0.165
ACCCTTAC	-0.0726
AACCTTGC	-0.313
CTTTCAAC	-0.118
ACATATGA	-0.103
GTCGTCCA	-0.168
CGGACTCC	-0.151
AGGGTTAG	-0.0174
AAGACCGG	-0.128
TATCCGCA	0.211

Sequence	PBM E-score
GAGAATCA	-0.102
CATGGGGA	-0.0766
ATTCCAGA	-0.109
GATGTCAA	-0.0401
AGTGCGGG	-0.05
CATGCTCC	-0.117
AGAACAGA	-0.0933
CTTTTGAC	-0.161
AGTACTAG	0.0292
CGACCAAG	0.121
TGGAAAAA	0.0283
CTCTTCAG	-0.058
CGTTTGTA	0.284
GCCGTTTA	0.421
CCTACGGA	-0.34
GAAGTGGC	-0.094
CCGACATC	0.0854
AGGCGCTG	-0.0209
ATGTTCAC	-0.144
AGACCTCC	-0.15
ACGTACGC	0.239
CAAGCATC	-0.184
ATCTGGTA	0.0716
GTAAGTTA	0.0233
CGTTATTA	0.236

Sequence	PBM E-score
ACAAGGAC	-0.227
CTCGTCTC	0.26
AGGGAATA	0.017
ATGCATGG	-0.124
TATATATA	0.199
CCGAGTGC	0.0849
CCCTTACA	-0.127
CATGTTCA	-0.299
AATCCTGA	-0.092
ATCGTTCG	0.373
GAGCCCTA	-0.115
ATTAGTAA	0.0849
CGTATACA	0.46
CACGAATC	0.0959
GCGTCGAC	-0.00773
CATCCATC	-0.107
GTTCTTGA	0.08
CTACATTC	-0.172
GCCCGTCA	-0.309
GGAAAACC	0.0891
CTATTCCC	-0.231
ATTGGGAA	0.132
TGCTTTAA	0.0315
GCGGCCCA	-0.0469
GACGTTCA	0.0272

Sequence	PBM E-score
AACGACTC	0.388
CAGCGCGC	-0.0315
ACCGGCAG	-0.137
CTGGAAAC	0.0868
GCTACACA	-0.162
AATGAATC	-0.0632
TAGAGCCA	-0.288
CATGAGTC	-0.0416
CACTTCTG	-0.291
CATTTTTA	-0.128
GCTACGAC	0.426
AGCTGCTA	-0.325
CACTAATC	0.124
CACACTTC	-0.188
AGTAGACA	0.0301
CATTGCCG	0.0206
CCCGTCAA	-0.176
GATGAATA	0.0442
AAACAGCT	-0.111
GAAGCAGA	-0.215
GAAGCCAC	0.101
AACCTAAA	0.0906
AGATGATA	-0.0184
GTGTCGAA	0.0332
CCGACTTA	0.0405

Sequence	PBM E-score
AACAAAGG	-0.139
CCACCACA	-0.164
AGAGTCAG	-0.111
ATTGTGTA	0.0188
AGCAGGAG	0.0144
AACCCTGG	-0.118
AGTGGGTG	-0.125
CCTTGACA	-0.243
CTTTTTGA	-0.151
ACATATCT	0.0439
CGCTGTTA	0.00882
AATGTGTG	-0.0594
ACTTAGCC	-0.252
GTCCGCAC	-0.0684
ACGGACGT	0.138
GATGAGCA	-0.0705
CAATTGCA	-0.125
CACAAAGC	-0.126
AATAGAAA	-0.112
